Among all 310,000 compounds or so, about 2,200 (0.71%) showed an effect of 50% or more. Effects have a minus sign here. The list shows a part of the results.

In this experiment the target is human ether-à-go-go-related gene (hERG) potassium channel (human, UniProt Q12809). In words: primary screen, population patch clamp on CHO cells stably expressing hERG.
human ether-à-go-go-related gene (hERG) potassium channel, sequence (Q12809 whole entry, looked up): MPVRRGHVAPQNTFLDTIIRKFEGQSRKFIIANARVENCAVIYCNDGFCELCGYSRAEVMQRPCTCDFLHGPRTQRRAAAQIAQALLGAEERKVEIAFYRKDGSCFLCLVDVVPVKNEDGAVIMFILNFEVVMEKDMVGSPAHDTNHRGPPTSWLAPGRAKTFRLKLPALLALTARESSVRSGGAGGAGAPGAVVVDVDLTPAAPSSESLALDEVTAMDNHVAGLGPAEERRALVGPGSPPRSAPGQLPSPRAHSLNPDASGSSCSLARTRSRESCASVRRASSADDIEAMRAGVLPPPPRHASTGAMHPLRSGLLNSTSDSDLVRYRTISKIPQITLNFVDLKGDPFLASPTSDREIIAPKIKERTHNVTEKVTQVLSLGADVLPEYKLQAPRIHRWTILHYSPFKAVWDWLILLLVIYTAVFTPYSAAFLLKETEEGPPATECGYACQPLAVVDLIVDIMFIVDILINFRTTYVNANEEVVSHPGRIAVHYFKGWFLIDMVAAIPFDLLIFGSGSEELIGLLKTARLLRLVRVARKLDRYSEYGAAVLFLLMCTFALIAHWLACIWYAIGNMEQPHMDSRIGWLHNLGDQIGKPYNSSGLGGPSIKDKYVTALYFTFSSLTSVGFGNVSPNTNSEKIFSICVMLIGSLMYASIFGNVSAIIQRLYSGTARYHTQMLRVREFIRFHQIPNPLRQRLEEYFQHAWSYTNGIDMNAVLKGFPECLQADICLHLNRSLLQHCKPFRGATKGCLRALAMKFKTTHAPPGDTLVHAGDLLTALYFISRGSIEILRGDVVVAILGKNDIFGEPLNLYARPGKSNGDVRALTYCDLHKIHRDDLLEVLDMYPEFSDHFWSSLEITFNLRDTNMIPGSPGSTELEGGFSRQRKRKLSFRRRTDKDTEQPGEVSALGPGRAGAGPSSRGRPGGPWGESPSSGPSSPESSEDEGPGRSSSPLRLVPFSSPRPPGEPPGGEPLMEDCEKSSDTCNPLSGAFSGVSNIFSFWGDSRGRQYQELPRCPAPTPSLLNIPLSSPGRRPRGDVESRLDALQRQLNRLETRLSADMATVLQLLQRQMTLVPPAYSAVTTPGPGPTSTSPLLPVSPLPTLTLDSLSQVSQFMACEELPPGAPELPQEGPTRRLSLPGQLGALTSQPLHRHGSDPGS
As for `CCN(CC(=O)NCc1ccc(Cl)cc1)CC(=O)Nc1ccc(C(N)=O)cc1`, the “hERG current change (%, negative = inhibition) at 1uM” value is 14.9%.

On to `CC(Oc1cccc(Cl)c1)C(=O)Nc1cc(S(=O)(=O)N2CCOCC2)ccc1N1CCCCC1` (stereo not shown), for which the “hERG current change (%, negative = inhibition) at 1uM” value is given as 6.66%. For `COc1cc(OC)cc(C(=O)NCC(=O)OCC(=O)C(C)(C)C)c1` the value was 9.69%.

Regarding `O=C(NCCCn1ccnc1)c1ccc(Br)s1`, the “hERG current change (%, negative = inhibition) at 1uM” value is reported as 0.298%. For `COc1ccc(NC(=O)CSc2ncnc3c2sc2ccccc23)c(OC)c1` the value was 3.79%. With `O=C(O)/C=C/C(=O)N1CCN(S(=O)(=O)c2cccc(C(F)(F)F)c2)CC1`, the “hERG current change (%, negative = inhibition) at 1uM” value stood at 1.07%. The result for `CC1=Nn2c(nnc2-c2cc(C)[nH]n2)SC1` reads -4.46%; that for `CCCNC(=O)c1c(O)c2c([nH]c1=O)CCCC2`, 14.6%; that for `CC(C)=CC(=O)OCC(=O)NC(=O)NC(C)(C)C`, 12.9%. The result for `O=C(COc1ccccc1)N1CCN(c2nnc(-c3ccccc3)c3ccccc23)CC1` reads -16%; that for `O=C(Cc1ccc(F)cc1)N1CCN(c2ccc(F)cc2)CC1`, 13.7%; that for `COCCCNC(=O)Cc1ccccc1OC`, -0.816%. For `O=C(Nc1ccc(F)cc1)NC1CCCCC1` the value was 5.18%. As for `NS(=O)(=O)c1ccc(CNC(=O)c2ccc(S(=O)(=O)NCc3ccco3)cc2)cc1`, the “hERG current change (%, negative = inhibition) at 1uM” value came out at 7.65%. The result for `C=C(C)CNC(=S)N/N=C1\CCCCc2ccccc21` reads -32%. For `COc1ccc(C(C(=O)NC2CCCCC2)N(C(=O)Cc2c[nH]c3ccccc23)c2ccc(NC(C)=O)cc2)cc1OC` (stereo not shown) the value was -2.68%; for `CC(C)C(=O)N1CCN(c2nc(-c3ccccc3)c3c(c2C#N)CC(C)(C)OC3)CC1`, -3.96%. The result for `CCCC(c1nnnn1Cc1ccc(F)cc1)N1CCN(C2CCCCC2)CC1.Cl` (stereo not shown) reads -44.6%. As to `COc1ccc(-c2ccc(C#N)c(SCC(=O)Nc3sc4c(c3C#N)CCC4)n2)cc1OC`, the “hERG current change (%, negative = inhibition) at 1uM” value turned out to be 7.22%. For `NS(=O)(=O)c1cc(C(=O)OCC(=O)Nc2ccc3[nH]c(=O)[nH]c3c2)ccc1Cl` the value was 2.93%. For `CC(C)c1cccc(C2=CC(=O)C[C@H](c3ccc4c(c3)OCO4)C2)c1` the value was 5.21%; for `Cc1cccc(C(=O)NC(=S)Nc2c(C)n(C)n(-c3ccccc3)c2=O)c1`, 7.91%. The result for `O=C(Cc1cccs1)Nc1cccnc1` reads 7.16%; that for `COc1ccccc1N1CCN(S(=O)(=O)c2cccc3nsnc23)CC1`, 5.57%. Regarding `O=C(CSc1nnc(-c2ccc(O)cc2)o1)Nc1ccc2c(c1)OCCO2`, the “hERG current change (%, negative = inhibition) at 1uM” value is -3.89%.
